Experimental data from PubChem BioAssay AID1963576 (National Center for Advancing Translational Sciences (NCATS), 2024).
Out of some 46,000 compounds screened, about 60 (0.1%) were called active. Not shown: some 3% with an inconclusive outcome. The call rests on the fitted dose curve; in most records, active means well fitted inhibition curve with a large enough effect; inconclusive means small, poorly fitted or top-dose-only effect; inactive means no such curve, though single readings can be large or run the other way. This is one part of the list.

test: Primary qHTS assay for Inhibitors of ovarian cancer metastasis using an organotypic tumor microenvironment (TME) model.; further: nearly all actives have a fitted effect of over 65% in size;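 on activity change, negative = inhibition: plate controls were DMSO wells for no effect and tomatine positive control wells for full effect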; details: SKOV3ip1-GFP adhesion/invasion on 3D omental model, fluorescence; series mostly up to 45.8 µM; activity change, negative = inhibition: at the top concentration
Outline: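 A 3D layer of primary human omental fibroblasts, mesothelial cells, fibronectin and collagen I, grown 48 hr, received SKOV3ip1-GFP cells in serum-free medium plus compounds at 0.36-46 umol/L. After 2 hr RT and 16 hr 37 C, fixed adherent GFP cells were counted; normalized to DMSO and tomatine.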

Activity change, negative = inhibition, inactive:
CCCCc1ccc(NS(=O)(=O)c2ccc(N3CCCCS3(=O)=O)cc2)cc1 9.96%
Cc1c(C(=O)Nc2ccc(F)c(F)c2)oc2ccc(S(=O)(=O)N3CCC4(CC3)OCCO4)cc12 12.4%
COc1ccccc1CNC(=O)CN(c1ccc(C)cc1)S(=O)(=O)c1c(C)noc1C 35.7%
Cc1nn(-c2ccc(F)cc2)c(-n2cccc2)c1C(=O)N1CCN(c2ccccc2F)CC1 -14.7%
O=C1NC(O)CCN1[C@@H]1O[C@H](CO)[C@H](O)[C@H]1O (stereo not given in full) -15.1%
O=C(CN1C(=O)CCc2cc(S(=O)(=O)N3CCOCC3)ccc21)NCc1ccccc1Cl 63.9%
COc1ccc(Cn2c(=O)c3oc4ccccc4c3n(Cc3cccc(F)c3)c2=O)cc1 -3.41%
Cc1ccc(OCC(=O)Nc2ccc3nc(SCC(N)=O)sc3c2)cc1 -2.98%
CCOC(=O)C1CCCN(S(=O)(=O)c2cc3c(cc2C)NC(=O)CO3)C1 (stereo not given) 10.3%
O=C(NCc1cccc(F)c1)c1ccc2nc(N3CCCCC3)sc2c1 6.57%
CC1=C(C(=O)Nc2cc(Cl)ccc2C)C(c2ccco2)n2ncnc2N1 (stereo not given) 33.8%
O=C(CSc1nc2c([nH]c3ccccc32)c(=O)n1-c1ccc(F)cc1)NCc1ccco1 -5.85%
COC(=O)c1c(C)oc2ccc(N(C(=O)Oc3ccccc3)S(=O)(=O)c3ccc(C(C)(C)C)cc3)cc12 -14.5%
Cc1c(C)n(C)c2ccc(C(=O)NCCc3ccc(Cl)cc3)cc12 -0.271%
Cc1ccc(CSc2ncc(Cl)c(C(=O)Oc3ccc(F)cc3)n2)cc1 17.2%
COc1cccc(CNC(=O)CSC2=Nc3ccccc3C3=NC(C)C(=O)N23)c1OC (stereo not given) -16.3%
CCOC(=O)COc1ccc(CC)cc1C(=O)c1ccn2nc(-c3ccc(Cl)cc3)cc2n1 -7.5%
Cc1ccc(-n2nc3ccc(NC(=O)Cc4ccc(Cl)cc4)cc3n2)cc1 2.09%
COC(=O)c1sc2cccc(F)c2c1S(=O)(=O)NCc1ccc(Cl)cc1 -7.89%
CCOC(=O)c1c(NC(=O)C(C)Sc2cn(CCNC(=O)c3ccccc3OC)c3ccccc23)sc2c1CCC2 (stereo not given) 60.2%
Cc1ccc(C)c(S(=O)(=O)NCCc2csc(-c3ccc(Cl)cc3)n2)c1 -9.55%
Cc1sc2c(c1C)c(=O)n(CCc1ccccc1)c(=O)n2Cc1ccc(F)cc1 -0.319%
O=S(=O)(NCCS(=O)(=O)N1CCN(c2ccccc2)CC1)c1ccc(Cl)cc1 0.153%
O=C(CCC(=O)c1ccccc1)Nc1ccc(F)c(Cl)c1 13.5%
COc1ccc(CCN2CC(C(=O)NCCc3ccccc3)CC2=O)cc1OC (stereo not given) 6.23%
O=C(c1cnc(N2CCCCC2)c2ccccc12)N1CCN(c2ccc(Cl)cc2)CC1 -6.92%
COc1ccc(C(=O)Nc2ccccc2-c2nc(-c3ccc(OC)cc3)no2)cc1 -6.53%
CC(=O)c1ccc(N2CCN(C(=O)c3cc4ccc5cccnc5c4[nH]3)CC2)cc1 6.16%
O=C(Nc1ccc(Cl)cc1)c1cc2nc(-c3ccc4c(c3)OCO4)cc(C(F)(F)F)n2n1 9.68%
CCn1c(=O)n(-c2cccc(Cl)c2)c(=O)c2sc3ccccc3c21 -4%
CCc1nn(CC(=O)N2CCN(c3ccc(Cl)cc3)CC2)c(=O)c2cc3occc3n12 -27.9%
CCCC(=O)C1=C(c2cccc(OC)c2)N(C(=O)CCC)n2c(C)nnc2S1 -27.8%
Cc1cc(C)c2sc(N(Cc3cccnc3)C(=O)CCOc3ccccc3)nc2c1 2.72%
CCOC(=O)c1ccc2c(c1)[C@@H]1C=CC[C@@H]1[C@H](c1cccc(OC)c1OC)N2 -20.6%
CSc1ccc(CNC(=O)CN2C(=O)C3CCCCN3c3ccc(C(=O)N4CCCC4)cc32)cc1 (stereo not given) -3.79%
Cn1ccc2c(OCC(=O)Nc3ccc([N+](=O)[O-])cc3)cccc2c1=O -0.976%
O=C(Nc1cc(C(F)(F)F)cc(C(F)(F)F)c1)c1cc(Cl)ccc1O -13.2%
CCc1ccc(NC(=O)C2CCN(S(=O)(=O)c3c(C)noc3/C=C/c3ccco3)CC2)cc1 0.143%
FC(F)(F)c1ccc(-c2noc(-c3ccccc3Br)n2)cc1 13%
COC(=O)c1cc2sc(C)cc2n1CC(=O)Nc1cccc(SC)c1 2.58%
COc1ccc(NC(=O)c2cc(S(=O)(=O)NCCC3=CCCCC3)ccc2F)cc1 3.72%
COc1ccc(-c2nc3cc(C(C)C)ccc3o2)cc1NC(=O)c1ccc(C)c(Cl)c1 0.812%
CCOC(=O)C1CCN(C(=O)c2ccc3c(c2)sc2nc(-c4ccc(C)cc4)cn23)CC1 -0.167%
Cc1ccc(CCNC(=O)c2ccc(CS(=O)(=O)Cc3cccc(C)c3)o2)cc1 -0.837%
CCCCCC(=O)N(c1ccc(OCC)cc1)S(=O)(=O)c1ccc2c(c1)n(C)c(=O)n2C -1.55%
Cc1ccc(NC(=O)Cn2cc3c(n2)CCC(C)C3)cc1C (stereo not given) -12.3%
COc1ccc(Cn2ccc3nc(C)c(C(=O)N4CCN(c5ccccc5F)CC4)cc3c2=O)cc1 -10.8%
CCn1ccc2cc(S(=O)(=O)N3CCCN(C(=O)NCC(=O)OC)CC3)ccc21 8.88%
Cc1cc(C)c(S(=O)(=O)NCc2csc(-c3ccccc3)n2)c(C)c1 -6.3%
Cc1ccc2nc(N3CCC(C(=O)NCc4ccc(F)cc4)CC3)[nH]c2c1 2.04%
COC(=O)c1ccc(Oc2nc3c(c(=O)n(C)c(=O)n3C)n2C(C)C)cc1 -3.65%
CCc1ccccc1N(C)C(=O)c1nn(C)c2c1CSc1ccccc1-2 -5.68%
CCC12CN3CC(C)(CN(C1)C3c1c[nH]c3ccc(OC)cc13)C2=O (stereo not given) 3.33%
O=C1CN(C(=O)c2ccc(S(=O)(=O)N3CCCCC3)cc2)C(c2ccc(F)cc2)c2cc(Br)ccc2N1 (stereo not given) 5.62%
CC(=O)N1CCc2cc(CNS(=O)(=O)c3ccc(C(C)(C)C)cc3)ccc21 7.48%
Cc1ccccc1NC(=O)Cn1c(=O)n(CCC(=O)NCc2ccc3c(c2)OCO3)c(=O)c2sccc21 -1.47%
CCN(CC)C(=O)c1sc2c(c1C)c(=O)n(-c1ccc(C)c(C)c1)c(=O)n2Cc1cccc(Cl)c1 -3.29%
CCC(Sc1nc2cc3c(cc2c(=O)n1CCCC(=O)NCc1ccc(OC)cc1)OCO3)C(=O)NCCCOC (stereo not given) -0.0989%
O=C(C=Cc1cccnc1)NCCCCC1CCN(C(=O)c2ccccc2)CC1 3.84%
CC(CNC(=O)C1CCN(S(=O)(=O)c2ccc3c(ccn3C)c2)CC1)c1ccccc1 (stereo not given) -2.63%
O=C(CSc1nc2c([nH]c3ccccc32)c(=O)n1-c1ccccc1)N1CCOCC1 -3.1%
O=C1CC(c2cccc(O)c2)c2cc3c(cc2N1)OCO3 (stereo not given) -21.7%
Cc1ccc(OCCn2c(-c3ccc(Br)cc3)nc3ccccc3c2=O)cc1C -22.7%
COc1ccc(NC(=O)Cn2c(=O)n(Cc3ccccc3Cl)c(=O)c3cc(OC)c(OC)cc32)cc1OC -4.44%
COc1ccc(-c2coc3cc(O)ccc3c2=O)cc1 6.43%
CCN(CC)CCn1c(-c2ccccc2)csc1=Nc1ccccc1 4.33%
Cc1ccc(NC(=O)c2c(C)oc3ccc(O)c(CN4CCCCCC4)c23)cc1 -13.8%

outcome, inactive:
CC(=O)Nc1ccc(NS(=O)(=O)c2ccc(Cl)s2)cc1
O=C(Nc1c(-c2ccc(F)cc2)nc2ccccn12)c1cccc(F)c1
CCSc1ncc(Cl)c(C(=O)N(Cc2ccccc2)Cc2ccco2)n1
CCCOc1ccc(NC(=O)CC2C(=O)N(c3ccc(C)cc3)C(=O)N2C2CCCC2)cc1 (stereo not given)
CCSc1nnc2c(n1)OC(c1sccc1C)N(C(C)=O)c1ccccc1-2 (stereo not given)
Cc1ccc(NC(=O)C2CCCN(S(=O)(=O)c3c(C)n[nH]c3C)C2)cc1Cl (stereo not given)
O=C(NCCc1ccc(Cl)cc1)c1ccc2c(c1)N(Cc1c(F)cccc1Cl)C(=O)CS2
CCOc1ccc(NC(=O)Cn2c(=O)n(CCCC(=O)NCc3ccc4c(c3)OCO4)c(=O)c3ccccc32)cc1
COc1ccc(-c2noc(N3CCN(c4ccc(C)cc4)C(C)C3)n2)cc1OC (stereo not given)
COc1ccccc1CNC(=O)c1cnc2c(-c3ccccc3)c(C)nn2c1C
O=C(c1ccc2c(c1)N(Cc1ccc(F)cc1)C(=O)c1ccccc1S2(=O)=O)N1CCN(c2ccccn2)CC1
Fc1ccc(-c2cc(C(F)(F)F)nc(NCc3ccccc3)n2)cc1
Cc1cccc(NC(=O)C2CCCN(S(=O)(=O)c3ccc4c(c3)oc(=O)n4C)C2)c1 (stereo not given)
COc1ccc(OC)c(/C=C(\C#N)c2nc3ccccc3c(=O)[nH]2)c1
O=S(=O)(NCc1nc2cccnc2n1Cc1ccc(F)cc1)c1ccc(Cl)s1
COc1cccc(-c2cc(C(F)(F)F)n3nc(C)c(-c4ccccc4)c3n2)c1
Cc1ccccc1C(=O)NC1(C(F)(F)F)N=C(c2ccccc2)N(Cc2ccccc2)C1=O (stereo not given)
Cc1ccc2nc(COc3cccc(NC(=O)c4cccc(Cl)c4)c3)cc(=O)n2c1
CCCCNC(=O)CSc1nc2cc3c(cc2c(=O)n1CCCCCC(=O)NCCc1ccc(OC)c(OC)c1)OCO3
O=C(COc1ccccc1[N+](=O)[O-])Nc1cc(-c2nc3cc(Cl)ccc3o2)ccc1Cl
Cc1ccc2cccc(NC(=O)c3ccc(C#N)cc3F)c2n1
CCOC(=O)C1CCCN(C(=O)CCS(=O)(=O)c2cc3c(cc2Cl)NC(=O)CO3)C1 (stereo not given)
Cc1ccc(OCC(=O)Nc2ccc3nc(SCC(=O)N4CCOCC4)sc3c2)cc1C
CC(C)OC(=O)c1c(NC(=O)COc2cccc(Br)c2)sc2c1CCCC2
COc1ccc(-c2onc(C)c2C)cc1S(=O)(=O)N1CCN(c2ccc(Cl)cc2)CC1
Nc1nonc1C(=O)NCCNCc1cccc(Cl)c1Cl
Cc1ccc(-n2ncc3c(N(CC(C)C)CC(C)C)ncnc32)c(C)c1
O=C(COc1ccccc1[N+](=O)[O-])N1CCC(c2nc3ccccc3o2)CC1
